# Experimental data as given in ChEMBL document CHEMBL4888484, “Replenishing the malaria drug discovery pipeline: Screening and hit evaluation of the MMV Hit Generation Library 1 (HGL1) against asexual blood stage Plasmodium falciparum ,using a nano luciferase reporter read-out” (2022).
# Out of some 4,800 compounds screened, about 410 (8.5%) showed an effect of 50% or more. Some of the results follow.
# Tested on: Plasmodium falciparum
# Experiment: Confirmatory screen in NF54 pLDH assay, in single point, at 2uM, 72h
# Format: functional, Erythrocyte
# Details: timepoint 72 hour
row,SMILES,% Inhibition [%]
1,COc1cccc(CNC(=O)CCC(=O)N(c2ccccc2)c2ccccc2)c1,13
2,Cc1c(Br)c(C(F)F)nn1CC(=O)N[C@@H](C)C(C)(C)C,-11
3,COc1cccc(NC(=O)c2ccccc2C(=O)OCCN2CCOCC2)c1,15
4,CC(=O)c1ccc(NC(=O)c2cnc(-c3ccc4c(c3)CCO4)s2)cc1,11
5,Cc1ccccc1N1CCN(C(=O)c2csc(C(=O)NC3CCCC3)n2)CC1,-7
6,O=C(N[C@H]1C[C@H]2C(=O)Nc3ccccc3C(=O)N2C1)c1cccnc1,1
7,COc1cccc(CNCc2ccccc2)c1OCc1ccccc1Cl,2
8,CC[C@H]1Cn2c(C(=O)NCCN3CCCC3)cc3cccc(c32)O1,-10
9,COc1ccc(-n2nc(-c3ccc(C)cc3)c3cnc4c(F)cccc4c32)cc1,8
10,CCCCN(CC)CCNC(=O)C1CCN(C2=NS(=O)(=O)C(c3ccc(OC)cc3)=C2C)CC1,39
11,CON(C)C[C@H](O)Cn1cc(Nc2ncnc3cc(F)ccc23)cn1,5
12,CC1CCCCC1N(C)C(=O)c1cc2ccccc2c(=O)[nH]1 (stereo unspecified),-14
13,O=C(NC1CCCC1)c1nc(C(=O)N2CCN(c3cccc(Cl)c3)CC2)cs1,-9
14,Fc1cccc(Cl)c1Cn1ccc(Nc2nnc(Cn3cc(Cl)cn3)s2)n1,-8
15,Cc1ccc(S(=O)(=O)c2c(NS(=O)(=O)c3ccc(F)cc3)n(CCc3ccccc3)c3nc4ccccc4nc23)cc1,103
16,O=C1CCC(C(=O)NCC2CCCOC2)(c2ccccc2)CN1 (stereo unspecified),-16
17,Cc1cc(C)n2c(-c3cccnc3)nnc2n1,2
18,COC(=O)[C@@](c1cc(Cl)c(O)c(Cl)c1)(N1CCOCC1)C(F)(F)F,14
19,COc1ccc(NC(=O)C2(N(Cc3ccccc3)C(=O)Cn3nnc4ccccc43)CCCCC2)cc1,12
20,COc1cccc(CC(=O)N2CCc3nc(N4CCC(C)CC4)nc(Oc4ccccc4OC)c3C2)c1,61
21,Cn1ncc(C(=O)CC#N)c1C(F)(F)F,-18
22,CCOC(=O)C1CN(S(=O)(=O)c2ccccc2)C1,-10
23,COc1ccccc1C1CC1c1nc(CC(=O)NC2CCCC2)no1 (stereo unspecified),-5
24,O=C1CC(c2cccc(NC(=O)CCc3ccccn3)c2)CC(=O)N1,12
25,COc1ccccc1[C@H]1CCN(S(=O)(=O)c2ccccc2)C1,-5
26,CCOc1cc(C(c2c(C)n(C)n(-c3ccccc3)c2=O)c2c(C)n(C)n(-c3ccccc3)c2=O)ccc1OCc1ccccc1,38

row,SMILES,% Inhibition [%]
1,COCC[C@@H](CO)NC(=O)NCc1cc2cc(F)ccc2s1,4
2,NS(=O)(=O)c1cc(C(=O)N2CCc3ccccc3C2)cs1,13
3,O=C(Cn1c(Cc2ccc(Cl)cc2)nc2ccccc21)Nc1ccccc1,9
4,Cn1c(-c2ccc(Br)cc2)cn2cc(-c3ccc(Cl)cc3)nc12,-1
5,O=C(Nc1ccccc1Br)c1cc(-c2ccc3c(c2)CCO3)no1,7
6,CCCCCC1CCC(c2ccc(-c3ccc(CC)cn3)cc2F)CC1 (stereo unspecified),7
7,O=C(Nc1ccc(C2(c3ccc(NC(=O)c4ccc(F)cc4)cc3)c3ccccc3C(=O)c3ccccc32)cc1)c1ccc(F)cc1,31
8,COc1ccc2c(c1)CCc1c[nH]nc1-2,0
9,Cc1nnc([C@@H]2COCCN2Cc2csc(C)c2)o1,2
10,CC(C)(C)c1noc(OCc2cccc(C#N)c2)n1,14
11,Cc1ccccc1CNC(=O)CN(C(C)C)C1CCOCC1,28
12,COc1ccccc1N1CCN(CCC(=O)NC2CCCCC2)CC1,11
13,Cc1ccc(S(=O)(=O)Nc2c(S(=O)(=O)c3ccc(C)cc3)c3nc4ccccc4nc3n2C[C@H]2CCCO2)cc1,8
14,CC(=O)Nn1ccc2nc(N3CCOCC3)ncc2c1=O,3
15,Cc1ccn(-c2cc(-c3cccs3)cc(-n3ccc(C)n3)n2)n1,3
16,Cc1noc(Cn2c(=O)c3cc4c(cc3n(CC(=O)Nc3cccc(Cl)c3)c2=O)OCO4)n1,7
17,CC1=NN(S(=O)(=O)c2ccc(F)cc2)C(=O)c2ccccc2O1,5
18,Cc1ccc(C(=O)N[C@@H](C)CCc2ccccc2)cc1S(=O)(=O)N1CCN(C)CC1,-22
19,O=c1[nH]c2cc3c(cc2c(=O)n1CCc1nc(-c2ccccc2Br)no1)OCO3,8
20,CC[C@H]1Cn2c(C(=O)N3CCN(c4ccccn4)CC3)cc3c(Cl)ccc(c32)O1,-6
21,COC(=O)C1=C(C(=O)OC)SC(=C2C(=S)C(C)(C)N(C(=O)c3cccnc3)c3c(C)cc(C)cc32)S1,0
22,O=C(COc1ccc(Cl)cc1)N1CC(n2cnnc2C2CC2)C1,-4
23,Cc1nc2cc3c(cc2n1CC(=O)Nc1ccc(Cl)cc1)OCCCO3,15
24,Cc1ccccc1[C@H]1CCN(c2ccc(NC(=O)C3CCCC3)c(C(=O)O)c2)C1,-3
25,O=C(Nc1nc2ccc(F)cc2s1)c1cccc2c(Br)cccc12,-9
26,Cc1cc(OCCOCCNCCN)cc(C(C)C)c1,25

row,SMILES,% Inhibition [%]
1,O=C(O)[C@H](Cc1ccccc1)N(C(=O)c1ccncc1)C1CC1,-3
2,Cn1nc2n(c1=O)CCN(S(=O)(=O)c1cccc3cccnc13)CC2,-5
3,CCN(C)S(=O)(=O)N1CCN(Cc2c(C)nc3n2CCCC3)CC1,-7
4,c1cnc(N2CCOCC2)c(CNc2cnc3ccccc3n2)c1,-7
5,CC(=O)c1cn(CC(=O)N2CCNC(=O)C2)c2ccccc12,6
6,CN(Cc1nc2ccccc2c(=O)[nH]1)C(=O)c1ccc(N2CCCC2=O)cc1,4
7,O=C(c1cncc(Br)c1)N1CC[C@H](c2nc(C3CCOCC3)no2)C1,10
8,C[C@H]1CN(C(=O)CNc2ccccc2-c2ccccc2)CCO1,-20
9,COc1ccc([C@H](C)NC(=O)/C(=C/c2ccccc2Cl)c2ccccc2)cc1,-28
10,Cc1cc(OC(F)F)c(C(=O)NC(C)CCC2CCCO2)s1 (stereo unspecified),-6
11,Cc1nn(C)c(C)c1CCCN[C@@H](C)c1cccc(O)c1,4
12,CC1CC1C(=O)Nc1cc(F)ccc1NC(=O)c1ccccn1 (stereo unspecified),7
13,CCN(CC)c1nc(-c2ccccc2)c(C#N)c(N)c1C#N,12
14,COc1cc(Cl)cc2c1OC=CC(C(=O)Nc1ccc(C)cc1)=C2,-2
15,C[C@@H](C(=O)Nc1cccc2ccccc12)c1ccc(-c2ccccc2)c(F)c1,-17
16,Cc1c(Cl)c(C(F)(F)F)nn1[C@@H](C)C(=O)NC1CCN(C(C)C)CC1,8
17,CC(=O)c1cccc(S(=O)(=O)N2CCN(C(=O)c3ccc4c(c3)CCC4)CC2)c1,9
18,COc1ccccc1CNC(=O)c1cn(CC2(O)CCN(Cc3ccccc3)CC2)nn1,12
19,CCN(C(=O)CN1C(=O)C(c2ccccc2)=NC12CCC(C)CC2)c1ccccc1 (stereo unspecified),-6
20,Cn1cccc1C(=O)NC1CCN(c2ccc(Cl)c(C#N)n2)CC1,13
21,Cc1ccc(NC(=O)c2cc3nccc(-c4ccc(F)cc4)n3n2)nc1,4
22,CCc1nnc(COC(=O)c2csc(NC)n2)o1,9
23,Cc1ccc(C)n1-c1ccc(Cl)c(C(=O)N[C@H]2CCN(CC(F)(F)F)C2)c1,-1
24,Clc1ccccc1CNCC#Cc1ccccc1,6
25,Cc1cc([C@@H](C)C(=O)NC2(C(=O)O)CCCCC2)c(C)o1,-25
26,COc1cc(Cl)cc2c1OC=CC(C(=O)NC(c1ccccc1)c1ccccc1)=C2,3

row,SMILES,% Inhibition [%]
1,COc1ccc(CNC(=O)c2cc(C(=O)C3CC3)c[nH]2)cc1,-10
2,Cc1nnc(NC(=O)c2cc(N3CCCC3)ncn2)s1,-10
3,Cc1noc(C)c1NC(=O)c1cc(-c2cccs2)nc2c1c(C)nn2C,-7
4,Nc1c(-c2ccccc2)nsc1C(=O)NCc1ccc(F)cc1,9
5,c1ccc(-c2cn3c(n2)c(-c2ccc4ccccc4n2)cc2ccccc23)cc1,43
6,Oc1c([C@@H](c2ccccn2)N2CCCC2)ccc2cccnc12,48
7,CC1=C(C(=O)N2CCN(C)CC2)[C@H](c2ccccc2C)n2ncnc2N1,8
8,Cc1cc(S(=O)(=O)N(C)C[C@H](O)C(F)(F)F)sc1C,-3
9,Clc1ccc(CNCCc2c[nH]cn2)cc1,-1
10,CCO[C@@H](C)C(=O)Nc1n[nH]c(Cc2cccc(F)c2)n1,8
11,O=C1CN(C(=O)Cc2c(F)cccc2Cl)C2(CCCC2)CN1,-13
12,Cc1ccccc1CNC(=O)[C@H]1CCCN(c2nc3cccnc3n(Cc3ccccc3)c2=O)C1,-6
13,c1ccc(-c2c[nH]nc2N2CCOCC2)cc1,18
14,COC(=O)c1ccccc1N(C)S(=O)(=O)c1cc2c(cc1C)OCC(=O)N2,-5
15,Cc1ccc(F)c(N2CCC(NS(=O)(=O)c3ccc(F)cc3Br)CC2)c1,9
16,Cc1ccc2nc3c(c(N)c2c1)CCCCN3C,-20
17,CCc1cnccc1[C@H](C)NC(=O)CN1C(=O)Cc2ccccc21,10
18,N#Cc1ccc(NC(=O)[C@](F)(OC(F)(F)C(F)(F)C(F)(F)F)C(F)(F)F)cc1,-2
19,C=CCNC(=O)N1CCC(c2nc(C)ccc2C(=O)N2CCCC2)CC1,7
20,COc1cc(CN(CC(N)=O)C(C)C)ccc1C,9
21,C=CCOC(=S)NC(=O)Cc1ccccc1Cl,11
22,CNC(=O)N1CCN(c2cc(C)nc(C3CC3)n2)CC1,-21
23,Cc1coc(-c2ccc(C)c(NC(=O)CCN3C(=O)CCC3=O)c2)n1,-28
